Reference: the supplement of paper PMC8728848
Some of the results follow.

Key:
Experiment in all cases: glycan array binding signal (z-score within array); higher = stronger binding
Conditions in all cases: glycan notation: IUPAC condensed, linker removed
Fuc(a1-2)Gal = biological target: Fuc(a1-2)Gal
Method in brief: (§1)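 Glycan array binding is given as a within-array Z-score, which can be read as non-binding when negative. The arrays, 3228 of them, came from the Consortium for Functional Glycomics database and were retained only where the protein sequence was available. Z-scores were averaged across arrays of the same protein sequence at different concentrations or buffers and across linkers.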

Fuc(a1-2)Gal(b1-3)GalNAc = biological target: Fuc(a1-2)Gal(b1-3)GalNAc
Method in brief: as §1

[1] = biological target: Fuc(a1-2)Gal(b1-3)GalNAc(b1-3)Gal
Method in brief: as §1

[2] = biological target: Fuc(a1-2)Gal(b1-3)GalNAc(b1-3)Gal(a1-4)Gal(b1-4)Glc
Method in brief: as §1

[3] = biological target: Fuc(a1-2)Gal(b1-3)GalNAc(b1-3)Gal(b1-4)Glc
Method in brief: as §1

[4] = biological target: Fuc(a1-2)Gal(b1-3)GalNAc(b1-4)[Neu5Ac(a2-3)]Gal(b1-4)Glc
Method in brief: as §1

[5] = biological target: Fuc(a1-2)Gal(b1-3)[Fuc(a1-4)]GlcNAc
Method in brief: as §1

Fuc(a1-2)Gal(b1-4)Glc = biological target: Fuc(a1-2)Gal(b1-4)Glc
Method in brief: as §1

Fuc(a1-2)Gal(b1-4)Glc6S = biological target: Fuc(a1-2)Gal(b1-4)Glc6S
Method in brief: as §1

Fuc(a1-2)Gal(b1-4)GlcNAc = biological target: Fuc(a1-2)Gal(b1-4)GlcNAc
Method in brief: as §1

[6] = biological target: Fuc(a1-2)Gal(b1-4)GlcNAc(b1-3)Gal(b1-4)GlcNAc
Method in brief: as §1

[7] = biological target: Fuc(a1-2)Gal(b1-4)GlcNAc(b1-3)Gal(b1-4)GlcNAc(b1-3)Gal(b1-4)GlcNAc
Method in brief: as §1

[8] = biological target: Fuc(a1-2)Gal(b1-4)GlcNAc6S
Method in brief: as §1

[9] = biological target: Fuc(a1-2)Gal(b1-4)[Fuc(a1-3)]GalNAc(b1-3)Gal(b1-4)[Fuc(a1-3)]GlcNAc
Method in brief: as §1

[10] = biological target: Fuc(a1-2)Gal(b1-4)[Fuc(a1-3)]GalNAc(b1-3)Gal(b1-4)[Fuc(a1-3)]GlcNAc(b1-3)Gal(b1-4)[Fuc(a1-3)]GalNAc
Method in brief: as §1

[11] = biological target: Fuc(a1-2)Gal(b1-4)[Fuc(a1-3)]GlcNAc
Method in brief: as §1

Fuc(a1-2)Gal6S(b1-4)Glc = biological target: Fuc(a1-2)Gal6S(b1-4)Glc
Method in brief: as §1

[12] = biological target: Fuc(a1-2)Gal6S(b1-4)Glc6S
Method in brief: as §1

[13] = biological target: Fuc(a1-2)Gal6S(b1-4)GlcNAc
Method in brief: as §1

Fuc(a1-2)GlcNAc = biological target: Fuc(a1-2)GlcNAc
Method in brief: as §1

Fuc(a1-2)[Gal(a1-3)]Gal = biological target: Fuc(a1-2)[Gal(a1-3)]Gal
Method in brief: as §1

[14] = biological target: Fuc(a1-2)[Gal(a1-3)]Gal(b1-3)GlcNAc
Method in brief: as §1

[15] = biological target: Fuc(a1-2)[Gal(a1-3)]Gal(b1-4)Glc
Method in brief: as §1

[16] = biological target: Fuc(a1-2)[Gal(a1-3)]Gal(b1-4)GlcNAc
Method in brief: as §1

[17] = biological target: Fuc(a1-2)[Gal(a1-3)]Gal(b1-4)[Fuc(a1-3)]GlcNAc
Method in brief: as §1

[18] = biological target: Fuc(a1-2)[Gal(a1-4)]Gal(b1-4)GalNAc
Method in brief: as §1

[19] = biological target: Fuc(a1-2)[GalNAc(a1-3)]Gal
Method in brief: as §1

[20] = biological target: Fuc(a1-2)[GalNAc(a1-3)]Gal(b1-3)GlcNAc
Method in brief: as §1

[21] = biological target: Fuc(a1-2)[GalNAc(a1-3)]Gal(b1-4)Glc
Method in brief: as §1

[22] = biological target: Fuc(a1-2)[GalNAc(a1-3)]Gal(b1-4)GlcNAc
Method in brief: as §1

B1: STA (Solanum tuberosum) (protein)
chain: NASAPLPYPQCGLKKGGGKCIKTGECCSIWGWCGTTSDYCAPGYCQKQCPGPYPQGRCGWQANGKSCPTGTGQCCSNAGWCGTTSDYCAPNNCQSQCKLPPPPPSPPPPPPSPPPPSPPPPPPSPPPPSPSPPPPPPSPPPPSPPPPSPPPPSPPPPPSPSPPPPPPSPPPPPPPLPYPQCGMKKGGGKCIKTGECCSIWGWCGTTSKYCSPGYCQMQCPDPYPEGRCGWQANGKSCPTGTGQCCSNAGWCGTTSAYCAPVNCQAQCNTTTLTSPIKNRMRGIESFMLNVV
With B1 the “glycan array binding signal (z-score)” value (Fuc(a1-2)Gal) was -0.504, the “glycan array binding signal (z-score)” value (Fuc(a1-2)Gal(b1-3)GalNAc) was -0.505 and the “glycan array binding signal (z-score)” value [1] was -0.501. The “glycan array binding signal (z-score)” value [2] was -0.498, the “glycan array binding signal (z-score)” value [3] was -0.507 and the “glycan array binding signal (z-score)” value [4] was -0.497. For the same binder, the “glycan array binding signal (z-score)” value [5] was -0.507, the “glycan array binding signal (z-score)” value (Fuc(a1-2)Gal(b1-4)Glc) was -0.508 and the “glycan array binding signal (z-score)” value (Fuc(a1-2)Gal(b1-4)Glc6S) was -0.504. The “glycan array binding signal (z-score)” value (Fuc(a1-2)Gal(b1-4)GlcNAc) was 0.574, the “glycan array binding signal (z-score)” value [6] was 1.09 and the “glycan array binding signal (z-score)” value [7] was 0.92. The “glycan array binding signal (z-score)” value [8] was 0.551, the “glycan array binding signal (z-score)” value [9] was -0.51 and the “glycan array binding signal (z-score)” value [10] was -0.504. For the same binder, the “glycan array binding signal (z-score)” value [11] was -0.516, the “glycan array binding signal (z-score)” value (Fuc(a1-2)Gal6S(b1-4)Glc) was -0.494 and the “glycan array binding signal (z-score)” value [12] was -0.491. For the same binder, the “glycan array binding signal (z-score)” value [13] was -0.512, the “glycan array binding signal (z-score)” value (Fuc(a1-2)GlcNAc) was -0.508 and the “glycan array binding signal (z-score)” value (Fuc(a1-2)[Gal(a1-3)]Gal) was -0.511. For the same binder, the “glycan array binding signal (z-score)” value [14] was -0.493, the “glycan array binding signal (z-score)” value [15] was -0.51 and the “glycan array binding signal (z-score)” value [16] was 2.57. The “glycan array binding signal (z-score)” value [17] was -0.504, the “glycan array binding signal (z-score)” value [18] was 0.418 and the “glycan array binding signal (z-score)” value [19] was -0.488. For the same binder, the “glycan array binding signal (z-score)” value [20] was -0.511, the “glycan array binding signal (z-score)” value [21] was -0.506 and the “glycan array binding signal (z-score)” value [22] was 2.86.
